Test results: the supplement of paper PMC8728848
This is one part of the list.

Experiments:
Assay in all cases: glycan array binding signal (z-score within array); higher = stronger binding
Details in all cases: glycan notation: IUPAC condensed, linker removed
[1] = biological target: Neu5Ac(a2-6)GlcNAc(b1-4)GlcNAc(b1-4)GlcNAc
In short: (§1)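 Negative Z-scores can be read as non-binding. The Z-score is calculated within each array and then averaged across arrays of one protein sequence at different concentrations or buffers and across linkers. Arrays, 3228 in all, were curated from the Consortium for Functional Glycomics database and kept only where the protein sequence was available.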

Neu5Ac(a2-8)Neu5Ac = biological target: Neu5Ac(a2-8)Neu5Ac
In short: as §1

[2] = biological target: Neu5Ac(a2-8)Neu5Ac(a2-3)Gal(b1-3)GalNAc(b1-4)[Neu5Ac(a2-3)]Gal(b1-4)Glc
In short: as §1

[3] = biological target: Neu5Ac(a2-8)Neu5Ac(a2-3)Gal(b1-3)GalNAc(b1-4)[Neu5Ac(a2-8)Neu5Ac(a2-3)]Gal(b1-4)Glc
In short: as §1

[4] = biological target: Neu5Ac(a2-8)Neu5Ac(a2-3)Gal(b1-4)Glc
In short: as §1

[5] = biological target: Neu5Ac(a2-8)Neu5Ac(a2-3)Gal(b1-4)GlcNAc
In short: as §1

[6] = biological target: Neu5Ac(a2-8)Neu5Ac(a2-3)[Gal(b1-3)GalNAc(b1-4)]Gal(b1-4)Glc
In short: as §1

[7] = biological target: Neu5Ac(a2-8)Neu5Ac(a2-3)[GalNAc(b1-4)]Gal(b1-4)Glc
In short: as §1

[8] = biological target: Neu5Ac(a2-8)Neu5Ac(a2-8)Neu5Ac
In short: as §1

[9] = biological target: Neu5Ac(a2-8)Neu5Ac(a2-8)Neu5Ac(a2-3)Gal(b1-4)Glc
In short: as §1

[10] = biological target: Neu5Ac(a2-8)Neu5Ac(a2-8)Neu5Ac(a2-3)[Gal(b1-3)GalNAc(b1-4)]Gal(b1-4)Glc
In short: as §1

[11] = biological target: Neu5Ac(a2-8)Neu5Ac(a2-8)Neu5Ac(a2-3)[GalNAc(b1-4)]Gal(b1-4)Glc
In short: as §1

[12] = biological target: Neu5Ac(a2-8)Neu5Ac(a2-8)Neu5Ac(a2-8)Neu5Ac(a2-3)[GalNAc(b1-4)]Gal(b1-4)Glc
In short: as §1

[13] = biological target: Neu5Ac(a2-8)Neu5Gc(a2-3)Gal(b1-4)GlcNAc
In short: as §1

[14] = biological target: Neu5Ac(b2-6)Gal(b1-4)GlcNAc
In short: as §1

Neu5Ac(b2-6)GalNAc = biological target: Neu5Ac(b2-6)GalNAc
In short: as §1

[15] = biological target: Neu5Ac9Ac(a2-3)Gal(b1-3)GlcNAc
In short: as §1

[16] = biological target: Neu5Ac9Ac(a2-3)Gal(b1-4)GlcNAc
In short: as §1

[17] = biological target: Neu5Ac9Ac(a2-6)Gal(b1-4)GlcNAc
In short: as §1

[18] = biological target: Neu5Gc(a2-3)Gal(b1-3)GlcNAc
In short: as §1

[19] = biological target: Neu5Gc(a2-3)Gal(b1-3)[Fuc(a1-4)]GlcNAc
In short: as §1

Neu5Gc(a2-3)Gal(b1-4)Glc = biological target: Neu5Gc(a2-3)Gal(b1-4)Glc
In short: as §1

[20] = biological target: Neu5Gc(a2-3)Gal(b1-4)GlcNAc
In short: as §1

[21] = biological target: Neu5Gc(a2-3)Gal(b1-4)GlcNAc(b1-3)Gal(b1-4)GlcNAc(b1-2)Man(a1-3)[Neu5Gc(a2-3)Gal(b1-4)GlcNAc(b1-3)Gal(b1-4)GlcNAc(b1-2)Man(a1-6)]Man(b1-4)GlcNAc(b1-4)GlcNAc
In short: as §1

[22] = biological target: Neu5Gc(a2-3)Gal(b1-4)[Fuc(a1-3)]GlcNAc
In short: as §1

[23] = biological target: Neu5Gc(a2-6)Gal(b1-4)GlcNAc
In short: as §1

Neu5Gc(a2-6)GalNAc = biological target: Neu5Gc(a2-6)GalNAc
In short: as §1

[24] = biological target: Neu5Gc(a2-8)Neu5Ac(a2-3)Gal(b1-4)GlcNAc
In short: as §1

[25] = biological target: Neu5Gc(a2-8)Neu5Gc(a2-3)Gal(b1-4)GlcNAc
In short: as §1

[26] = biological target: Neu5Gc(a2-8)Neu5Gc(a2-3)Gal(b1-4)GlcNAc(b1-3)Gal(b1-4)GlcNAc
In short: as §1

[27] = biological target: Neu5Gc(a2-8)Neu5Gc(a2-6)Gal(b1-4)GlcNAc
In short: as §1

[28] = biological target: Neu5Gc(b2-6)Gal(b1-4)GlcNAc
In short: as §1

B1: OGAA (protein)
chain: MVQKESQATLEERESELSSNPAASAGASLEPPAAPAPGEDNPAGAGGAAVAGAAGGARRFLCGVVEGFYGRPWVMEQRKELFRRLQKWELNTYLYAPKDDYKHRMFWREMYSVEEAEQLMTLISAAREYEIEFIYAISPGLDITFSNPKEVSTLKRKLDQVSQFGCRSFALLFADIDHNMCAADKEVFSSFAHAQVSITNEIYQYLGEPETFLFCPTEYCGTFCYPNVSQSPYLRTVGEKLLPGIEVLWTGPKVVSKEIPVESIEEVSKIIKRAPVIWDNIHANDYDQKRLFLGPYKGRSTELIPRLKGVLTNPNCEFEANYVAIHTLATWYKSNMNGVRKDVVMTDSEDSTVSIQIKLENEGSDEDIETDVLYSPQMALKLALTEWLQEFGVPHQY
glycan array binding signal (z-score) [1]: -0.021
glycan array binding signal (z-score) (Neu5Ac(a2-8)Neu5Ac): -0.121
glycan array binding signal (z-score) [2]: -0.107
glycan array binding signal (z-score) [3]: 0.02
glycan array binding signal (z-score) [4]: -0.022
glycan array binding signal (z-score) [5]: -0.117
glycan array binding signal (z-score) [6]: 0.132
glycan array binding signal (z-score) [7]: -0.086
glycan array binding signal (z-score) [8]: -0.118
glycan array binding signal (z-score) [9]: -0.132
glycan array binding signal (z-score) [10]: -0.094
glycan array binding signal (z-score) [11]: -0.032
glycan array binding signal (z-score) [12]: -0.107
glycan array binding signal (z-score) [13]: -0.042
glycan array binding signal (z-score) [14]: -0.101
glycan array binding signal (z-score) (Neu5Ac(b2-6)GalNAc): -0.131
glycan array binding signal (z-score) [15]: -0.029
glycan array binding signal (z-score) [16]: -0.088
glycan array binding signal (z-score) [17]: -0.088
glycan array binding signal (z-score) [18]: -0.026
glycan array binding signal (z-score) [19]: -0.033
glycan array binding signal (z-score) (Neu5Gc(a2-3)Gal(b1-4)Glc): 0.047
glycan array binding signal (z-score) [20]: -0.07
glycan array binding signal (z-score) [21]: -0.094
glycan array binding signal (z-score) [22]: -0.02
glycan array binding signal (z-score) [23]: -0.063
glycan array binding signal (z-score) (Neu5Gc(a2-6)GalNAc): -0.058
glycan array binding signal (z-score) [24]: -0.078
glycan array binding signal (z-score) [25]: -0.085
glycan array binding signal (z-score) [26]: -0.047
glycan array binding signal (z-score) [27]: -0.034
glycan array binding signal (z-score) [28]: -0.029
